The other results are listed elsewhere or left out. Sequences were assembled here from the parent chain. Values near 0.05 are background.
B1: TEV protease; numbered along this chain (parent)
chain: MGESLFKGPRDYNPISSSICHLTNESDGHTTSLYGIGFGPFIITNKHLFRRNNGTLVVQSLHGVFKVKDTTTLQQHLVDGRDMIIIRMPKDFPPFPQKLKFREPQREERICLVTTNFQTKSMSSMVSDTSCTFPSGDGIFWKHWIQTKDGQCGSPLVSTRDGFIVGIHSASNFTNTNNYFTSVPKNFMELLTNQEAQQWVSGWRLNADSVLWGGHKVFMVKPEEPFQPVKEATQL

Variants of: B1
Assay: raw area under fraction-flipped curve 0-4 h after induction (AUC4h, not background-subtracted), DNA-recorder readout of cleavage of the substrate (dimensionless); higher = more cleavage of the substrate by the protease variant
Conditions: temperature: 34 °C; time window: 0-4 h after rhamnose induction
Experimental: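 In vivo DNA recorder in E. coli TOP10(DE3) ΔrhaA at 34 °C. Each TEVp single-site mutant (parent TEVp 0) is paired with a single-site variant of the 7-mer TEVs (canonical ENLYFQ|S). The substrate sits between flexible linkers in a Bxb1-sfGFP-TEVs-SsrA fusion, so cleavage stabilises Bxb1 and speeds flipping of a recombination array, read by NGS. The value is the raw area under the fraction-flipped curve over 0-4 h after rhamnose induction (AUC4h), with ≥20 reads per time point. It is not background-subtracted; inactive controls average about 0.047.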
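Further: Bxb1 expression induced with 0.2% (w/v) L-rhamnose at OD600 near 0.5, cultures sampled hourly, flipped fraction per protease–substrate barcode pair counted by paired-end Illumina sequencing.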

Variant	area with substrate ENLCFQS	area with substrate ENLEFQS	area with substrate ENLFFQS	area with substrate ENLHFQS	area with substrate ENLIFQS	area with substrate ENLKFQS	area with substrate ENLLFQS	area with substrate ENLMFQS	area with substrate ENLNFQS	area with substrate ENLPFQS	area with substrate ENLQFQS	area with substrate ENLRFQS	area with substrate ENLVFQS	area with substrate ENLDFQS	area with substrate ENLTFQS	area with substrate ENLWFQS	area with substrate ENLSFQS	area with substrate ENLAFQS	area with substrate ENLGFQS
L33M	0.0716	0.0597	0.0685	0.0718	0.0669	0.0596	0.0788	0.0625	0.0646	0.0647	0.0642	0.0628	0.0639	–	–	–	–	–	–
S4H	0.0628	0.0706	0.104	0.0818	0.0847	0.079	–	–	0.055	–	0.0695	–	–	0.0611	0.0816	0.0878	–	–	–
I36Y	0.0898	–	0.0506	0.0409	0.0411	–	0.0326	–	0.051	0.042	0.0488	–	0.0546	0.0509	–	–	0.0453	–	–
I36H	0.0487	–	0.0404	0.0389	–	0.0557	–	–	0.0389	–	–	–	–	0.0485	–	0.0503	0.0309	–	–
F187M	0.0739	0.0531	0.111	0.0724	–	0.07	0.0723	–	0.0652	–	–	0.069	0.0733	0.0609	–	0.0612	0.0592	0.0416	0.0562
N13I	0.0771	0.06	0.072	0.0686	–	0.0785	0.0698	0.0632	0.0658	–	–	0.0767	–	0.0641	0.0777	0.0835	0.0654	–	–
G202Q	–	0.051	0.0323	0.0719	–	0.0675	0.0754	0.0743	0.0539	0.0556	0.059	0.0675	0.065	0.0644	0.097	–	0.0515	0.0449	–
S201R	0.0916	–	0.0844	–	0.085	–	0.0523	–	0.0651	0.0567	0.0673	–	–	0.0703	–	0.0709	0.0619	0.0684	–
Q227V	0.0813	–	0.118	0.071	0.113	–	–	–	0.0533	0.0691	0.0776	–	0.109	–	–	0.0614	0.0659	0.0626	0.0606
Q227K	0.0753	–	0.0878	0.0633	0.0771	0.0711	0.0685	–	0.0492	–	–	–	–	0.0607	–	–	–	0.0505	–
E223I	0.0705	0.0637	0.0811	0.0359	–	0.0699	0.0603	–	0.0601	–	0.0588	–	0.103	0.0637	–	–	–	0.0685	–
S26L	0.0556	–	–	0.0715	–	0.0811	–	–	0.0579	–	–	0.075	–	0.0243	–	–	–	–	–
S26N	0.0589	0.0582	0.0615	0.0851	0.0676	–	0.073	0.0696	0.0692	–	0.0562	0.0706	–	0.0593	–	0.052	0.0628	–	–
S26W	0.0661	–	0.0785	0.0592	0.0628	0.0713	–	0.0577	0.0651	–	–	–	0.0727	0.0601	–	–	0.0632	–	–
S209V	–	0.0655	0.0911	0.0749	–	0.0689	0.0722	–	0.0659	0.0631	0.0821	0.0716	–	0.0615	–	0.0629	0.0663	0.0622	0.0587
Q234W	–	0.0613	0.084	0.0442	0.0661	0.0541	–	–	0.0636	0.0667	0.0713	–	–	0.0546	–	0.065	0.0544	0.0659	–
H47E	0.0642	0.061	0.0595	0.0503	–	0.0701	0.0642	0.0611	0.0634	–	0.0551	–	0.0587	0.055	0.0766	–	0.0486	–	–
P222D	0.063	–	0.0745	–	0.0824	0.0707	–	–	0.074	0.0588	0.0619	0.0741	0.0614	0.0706	–	–	–	0.0882	–
L211Q	0.037	–	0.0873	0.0836	0.0744	0.0962	0.0817	–	0.0528	0.0635	–	–	–	0.064	–	0.0833	0.0589	0.0794	0.055
T192M	0.0694	0.0668	0.0955	0.0899	0.0792	0.0715	0.0718	–	0.0715	0.0596	–	0.0726	–	0.0639	0.0628	0.0754	–	0.0569	0.0662
F180N	0.0399	0.0687	0.0613	0.0514	0.0583	0.0426	0.0602	–	–	–	–	–	–	0.0582	0.0672	–	0.103	0.0564	–
S18A	0.0799	–	0.0897	–	0.0881	0.0778	–	–	–	0.0903	0.0549	0.072	–	0.0436	–	0.0717	–	–	–
L191A	–	0.0592	0.0471	–	0.0705	0.0641	0.0508	0.0548	0.0546	0.0409	–	–	–	–	–	0.0399	0.0669	0.0484	–
L191F	–	0.0649	0.0851	0.0627	0.0685	0.0828	–	–	0.0602	0.0625	0.0577	0.066	0.0881	0.0627	–	0.0642	0.0645	0.0707	–
L191Y	0.0482	0.0642	0.0629	–	0.066	0.0517	–	–	0.0669	0.0527	–	0.0195	–	0.061	–	–	–	0.0436	–
G28D	0.0636	0.0619	0.0795	0.0609	0.0832	0.0727	0.0602	–	0.0654	0.0497	0.0731	0.0753	0.068	0.0583	–	0.0688	0.0611	–	–
V183H	0.0435	0.0522	0.0695	0.0659	–	–	0.0522	–	0.0685	0.0373	–	0.0562	–	0.0564	0.0627	0.0388	0.0476	0.0916	0.058
L205G	0.0471	0.0581	0.063	0.0608	–	0.0784	0.0634	0.0855	0.0568	0.0591	0.0592	0.0582	0.042	0.0614	–	0.0362	0.0908	0.0512	–
L205M	–	–	0.109	0.088	–	0.0941	–	–	0.0615	–	0.0964	–	0.0958	0.0476	–	0.101	0.0588	0.0726	–
